From the supplement of paper PMC6531468
Some of the results follow. Read counts after selection give these values, which scatter widely. Scores sum up all selected molecules that hold the word; the word was not tested alone.

How the values were obtained:
Experiment in all cases: 6-mer SELEX enrichment z-score vs GST control; IMP3 is the RNA-binding protein IGF2BP3; higher = more enriched by binding
IMP3 KH1-4 = settings: construct: KH1-4 (164-579); SELEX round: R4
Protocol: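 SELEX-seq with GST-tagged IMP3 KH1-4 (Pro164-Lys579) and an N40 RNA pool, round 4. 6-mer z-score of sequence-tag enrichment normalised to the corresponding GST SELEX round; RNA k-mers written as DNA (T for U).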

IMP3 RRM1-2 = settings: construct: RRM1-2 (1-163); SELEX round: R2
Protocol: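 SELEX-seq with GST-tagged IMP3 RRM1-2 (Met1-Asn163) and an N40 RNA pool, round 2. 6-mer enrichment z-score normalised to GST SELEX. RNA written as DNA (T = U).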

IMP3 full-length = IMP3 full-length (UniProt O00425); settings: construct: FL IMP3 (1-579); SELEX round: R4
Protocol: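 SELEX-seq with GST-tagged full-length IMP3 and an N40 RNA pool, round 4. Each 6-mer is scored as an enrichment z-score of sequence tags containing it, normalised to the matching GST SELEX round. RNA written as DNA (T = U).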

IMP3 KH1-2 = settings: construct: KH1-2 (164-376); SELEX round: R4
Protocol: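 SELEX-seq with GST-tagged IMP3 KH1-2 (Pro164-Phe376) and an N40 RNA pool, round 4 (stringent 300/600 mM KCl washes). 6-mer z-score of sequence-tag enrichment normalised to the corresponding GST SELEX round; RNA k-mers written as DNA (T for U).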

Sequence of IMP3 RRM1-2 (chain, as listed by the source): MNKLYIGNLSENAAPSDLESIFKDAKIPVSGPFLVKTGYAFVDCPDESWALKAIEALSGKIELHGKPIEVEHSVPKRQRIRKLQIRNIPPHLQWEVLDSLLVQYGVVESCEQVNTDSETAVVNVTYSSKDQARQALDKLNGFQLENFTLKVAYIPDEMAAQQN
Sequence of IMP3 KH1-2 (chain, as listed by the source): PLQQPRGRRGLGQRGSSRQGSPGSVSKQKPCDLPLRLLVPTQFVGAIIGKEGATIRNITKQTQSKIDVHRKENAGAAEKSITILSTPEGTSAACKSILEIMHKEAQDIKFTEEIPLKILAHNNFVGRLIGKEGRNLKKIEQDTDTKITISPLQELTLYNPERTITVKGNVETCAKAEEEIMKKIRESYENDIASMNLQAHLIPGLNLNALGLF
Sequence of UniProt O00425 (O00425 whole entry): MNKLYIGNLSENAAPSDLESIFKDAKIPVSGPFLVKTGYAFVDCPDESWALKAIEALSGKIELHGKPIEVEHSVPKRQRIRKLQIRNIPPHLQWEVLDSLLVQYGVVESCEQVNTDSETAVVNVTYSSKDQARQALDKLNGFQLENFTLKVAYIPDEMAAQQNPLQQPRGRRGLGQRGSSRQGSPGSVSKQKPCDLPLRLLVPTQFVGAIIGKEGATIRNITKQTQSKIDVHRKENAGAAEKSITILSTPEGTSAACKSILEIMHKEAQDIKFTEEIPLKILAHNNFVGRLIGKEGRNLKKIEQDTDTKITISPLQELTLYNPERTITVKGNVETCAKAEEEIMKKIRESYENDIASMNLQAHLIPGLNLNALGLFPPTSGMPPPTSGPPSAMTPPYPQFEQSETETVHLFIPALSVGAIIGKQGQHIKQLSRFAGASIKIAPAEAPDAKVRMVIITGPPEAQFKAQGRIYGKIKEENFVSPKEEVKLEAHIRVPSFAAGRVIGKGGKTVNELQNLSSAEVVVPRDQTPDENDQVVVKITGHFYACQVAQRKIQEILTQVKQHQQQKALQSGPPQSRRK
Sequence of IMP3 KH1-4 (chain, as listed by the source): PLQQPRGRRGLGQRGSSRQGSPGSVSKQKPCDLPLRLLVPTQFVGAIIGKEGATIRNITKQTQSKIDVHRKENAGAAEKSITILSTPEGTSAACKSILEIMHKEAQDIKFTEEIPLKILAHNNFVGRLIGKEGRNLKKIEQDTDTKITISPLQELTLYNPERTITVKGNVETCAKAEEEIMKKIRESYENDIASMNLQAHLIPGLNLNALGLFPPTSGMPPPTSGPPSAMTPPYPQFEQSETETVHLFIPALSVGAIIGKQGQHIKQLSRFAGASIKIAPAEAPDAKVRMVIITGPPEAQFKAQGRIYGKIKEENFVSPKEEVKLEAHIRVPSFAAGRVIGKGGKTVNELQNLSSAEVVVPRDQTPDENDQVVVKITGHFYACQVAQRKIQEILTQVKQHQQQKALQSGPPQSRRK

Row | Sequence | 6-mer SELEX enrichment z-score (IMP3 KH1-4) | 6-mer SELEX enrichment z-score (IMP3 RRM1-2) | 6-mer SELEX enrichment z-score (IMP3 full-length) | 6-mer SELEX enrichment z-score (IMP3 KH1-2)
1 | GTTCTG | 0.124 | 0.219 | 0.067 | 0.094
2 | TACCAC | -0.504 | 0.07 | -0.467 | -0.574
3 | GACCTT | -0.604 | -0.531 | -0.772 | -0.604
4 | GGAGTG | 0.128 | -0.132 | -0.005 | 0.186
5 | CAAGGG | -0.129 | -0.077 | 0.159 | -0.005
6 | TACCAG | -0.334 | -0.126 | -0.333 | -0.449
7 | GAGGCG | 0.472 | 0.002 | 0.781 | 0.589
8 | GGACAG | 1.26 | -0.556 | 0.82 | 1.1
9 | TCCAGG | 0.158 | 0.194 | 0.192 | 0.037
10 | AACACT | 0.91 | 1.65 | 0.51 | 1.29
11 | AGACGG | 0.128 | -0.554 | 0.152 | 0.032
12 | CACAGC | -0.042 | 1.58 | 1.61 | 0.151
13 | TCCAGC | -0.692 | 0.167 | -0.183 | -0.692
14 | AACCAG | -0.654 | -0.132 | -0.798 | -0.674
15 | TCACCT | -0.248 | 0.305 | -0.272 | -0.214
16 | CACGTG | -0.075 | 0.06 | 0.331 | -0.231
17 | GTATCC | -1.12 | -0.08 | -0.731 | -0.975
18 | TAATCG | -0.095 | -0.187 | -0.287 | -0.237
19 | CTAGTT | -0.201 | 0.333 | -0.122 | -0.202
20 | TGGGTT | 0.162 | 0.523 | 0.251 | 0.269
21 | GATCAC | 0.506 | 2.17 | 1.07 | 0.333
22 | ATGCCT | -0.487 | -0.219 | -0.567 | -0.416

Row | Sequence | 6-mer SELEX enrichment z-score (IMP3 KH1-4) | 6-mer SELEX enrichment z-score (IMP3 RRM1-2) | 6-mer SELEX enrichment z-score (IMP3 full-length) | 6-mer SELEX enrichment z-score (IMP3 KH1-2)
23 | CTAGAT | 0.278 | -0.171 | -0.146 | 0.169
24 | GTGCCC | -1.7 | -0.197 | -0.857 | -1.36
25 | AATATA | 2.33 | -0.424 | 0.22 | 2.18
26 | ATCGAA | -1.25 | -0.925 | -1.01 | -1.39
27 | GCGTAA | -2.94 | -0.412 | -1.9 | -2.75
28 | CTACAT | 1.22 | 1.01 | 1.08 | 1.46
29 | TCGCGC | -0.711 | 0.34 | 0.047 | -0.654
30 | ATTAGT | 0.627 | 0.329 | 0.273 | 0.375
31 | ATACGT | 0.274 | -0.034 | -0.063 | -0.035
32 | AATCTT | 0.151 | 0.14 | -0.033 | 0.043
33 | GATTCC | 0.195 | -0.507 | -0.413 | 0.053
34 | AGAAGG | 0.571 | -0.52 | -0.037 | 0.546
35 | CCATAA | 0.679 | -0.179 | -0.005 | 0.88
36 | ACGGGG | 1.3 | -0.463 | 0.752 | 1.65
37 | GACCGT | -0.979 | -0.84 | -0.636 | -0.904
38 | AAGGAC | 0.039 | -1.07 | -0.565 | -0.227
39 | GGGACT | -0.181 | -0.294 | -0.156 | -0.007
40 | CTGTGC | 0.008 | -0.009 | -0.053 | -0.061
41 | CGGTCG | 0.215 | 0.219 | 0.695 | 0.186
42 | TTTTCA | 1.18 | 0.791 | 0.938 | 1.43
43 | TGAATA | 1.38 | -0.851 | -0.341 | 0.985
44 | CGAGCC | -3.19 | -0.711 | -1.02 | -2.79

Row | Sequence | 6-mer SELEX enrichment z-score (IMP3 KH1-4) | 6-mer SELEX enrichment z-score (IMP3 RRM1-2) | 6-mer SELEX enrichment z-score (IMP3 full-length) | 6-mer SELEX enrichment z-score (IMP3 KH1-2)
45 | CCTATA | 0.439 | -0.359 | -0.356 | 0.324
46 | AGTGGG | 0.43 | 0.166 | 0.397 | 0.578
47 | AATAAT | 1.93 | -0.631 | 0.078 | 1.97
48 | CTGAGG | -0.133 | -0.106 | -0.021 | -0.086
49 | AATAAA | 1.45 | -1.95 | -0.869 | 1.69
50 | CGTCAC | -0.618 | 0.348 | 0.364 | -0.65
51 | TTCATC | 1.13 | 1.24 | 1.49 | 1.2
52 | GCTGGC | 0.453 | 0.179 | 0.734 | 0.465
53 | GGCTGG | 0.534 | 0.261 | 0.819 | 0.638
54 | GACCCT | -1.06 | -0.699 | -0.951 | -1.02
55 | CAAACC | -1.94 | -0.181 | -1.54 | -1.58
56 | AGTTCT | 0.05 | 0.333 | 0.044 | 0.032
57 | TTGGCA | 0.302 | 0.433 | 0.543 | 0.176
58 | GAAACG | -1.28 | -1.88 | -1.54 | -1.34
59 | AAAGAC | -0.835 | -2.08 | -1.85 | -0.872
60 | CCTGTG | -0.485 | -0.332 | -0.534 | -0.444
61 | CGGAGA | 0.033 | -0.941 | -0.185 | -0.084
62 | CATAAT | 1.94 | 0.774 | 1.18 | 2.03
63 | GTAAGG | 0.426 | -0.151 | 0.062 | 0.24
64 | ACTTGC | -0.357 | 0.111 | -0.389 | -0.411
65 | GTTACA | 0.378 | 0.359 | 0.293 | 0.188
66 | GCGGTA | -0.203 | 0.095 | 0.086 | -0.211
